Source: PubChem BioAssay AID686979 (National Center for Advancing Translational Sciences (NCATS), 2013)
Several values for one entry are separate records, joined by “and”; a condition that tells them apart may be missing. Equal entries are not always repeated. Among all 420,000 compounds or so, about 50,000 (12%) were called active. The shares of active, inactive and inconclusive entries below differ from those in the screen. Calls follow the shape of the dose curve; as a rule, active = well fitted inhibition curve with a large enough effect; inconclusive = small, poorly fitted or top-dose-only effect; inactive = flat fitted curve, though single readings scatter. Where the call is inconclusive, the potency comes from a doubtful curve fit.

test: qHTS for Inhibitors of human tyrosyl-DNA phosphodiesterase 1 (TDP1): qHTS in cells in presence of CPT; details: chicken DT40 Tdp1-/-;hTDP1 cells + 20 nM CPT, ATP luminescence, 48 h; activity change, negative = growth inhibition: at 46.2 µM (top of the series); also: nearly all actives have a fitted effect of over 55% in size
Summary of the method: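 Chicken DT40 Tdp1-/- cells stably complemented with human TDP1 were seeded at 400 cells/well in medium containing 20 nM camptothecin, exposed to pin-transferred compounds, and grown at 37 °C for at least 48 hr. Viability was read as ATP luminescence.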
% is scaled to controls: 0 for no effect and ±100 for the full control effect; potency is read from the fitted curve at half-maximal effect; tags tell the direction and shape of the fitted curve.

| SMILES | Potency | activity change, negative = growth inhibition |
| --- | --- | --- |
| Cc1ccc(Sc2cc(C(F)(F)F)nc(N(C)C)n2)cc1 | inconclusive: 23.1 µM [inhibitor, partial curve] | – |
| Cc1noc(C)c1C(=O)OC(C)C(=O)Nc1ccc2c(c1)OCO2 (centres undefined) | inactive | – |
| CC1Cc2ccccc2N1C(=O)COC(=O)CCc1nc2ccccc2c(=O)[nH]1 (centres undefined) | active: 29.1 µM | – |
| CSc1ccc(CCNC(=O)c2cc3c(-c4ccccc4F)nn(C)c3s2)cc1 | inconclusive: 29.1 µM [inhibitor, single point] | – |
| CCOC(=O)c1cccc(NC(=O)c2cc3cc4ccc(C)cc4nc3s2)c1 | active: 14.6 µM | – |
| CC(=O)c1ccc(N2CCN(C(=O)c3ccccc3SCC(=O)NCc3ccco3)CC2)c(F)c1 | inconclusive: 16.4 µM [inhibitor, single point] | – |
| COc1ccc2c(Cl)c(-c3nnc4n3CCCCC4)sc2c1 | inconclusive: 29.1 µM [inhibitor, single point] | – |
| CCOC(=O)C1CCN(c2c(-c3ccccc3)c3cc(Cl)ccc3[nH]c2=O)CC1 | inconclusive: 23.1 µM [inhibitor, single point] | – |
| C[C@H]1CN([C@@H](C)CO)C(=O)c2cccc(NC(=O)Nc3ccc(C(F)(F)F)cc3)c2O[C@@H]1CN(C)S(=O)(=O)c1ccccc1 | inconclusive: 29.1 µM [inhibitor, single point] | – |
| CC(C)(C)C(=O)Cn1ncc(Cl)c(Cl)c1=O | active: 16.4 µM | – |
| CC(=O)c1cccc(NC(=S)N2c3ccccc3CC2C)c1 (centres undefined) | inactive | – |
| COc1cc(CCNC(=O)c2cnn3ccccc23)cc(OC)c1OC | inconclusive: 29.1 µM [inhibitor, single point] | – |
| CCOC(=O)c1c(-c2ccc(C)c(C)c2)csc1NC(=O)C1CC=CCC1C(=O)O (centres undefined) | inconclusive: 14.6 µM [inhibitor, partial curve] | – |
| COc1ccc(-c2nc3ccccc3o2)cc1NC(=O)COc1ccc(C)cc1 | inconclusive: 22.4 µM [inhibitor, single point] | – |
| Cc1cc(C)cc(Nc2nc3c(S(=O)(=O)c4cccc(Cl)c4)nnn3c3ccsc23)c1 | inactive | – |
| O=C(Cc1cccs1)Nc1nc(-c2ccc(F)c(F)c2)cs1 | active: 8.2 µM | – |
| CCOC(=O)c1cc(-c2ccc(F)cc2)n(CCC(=O)NC2CCCCC2)c1C | active: 14.6 µM | – |
| CCn1cnc2cc(NS(=O)(=O)c3ccc(OC)c(OC)c3)ccc21 | inconclusive: 13 µM [inhibitor, partial curve, poor fit] | – |
| CN(C)c1ccc(/C(=N\O)c2ccccc2)cc1 | inactive | – |
| CCCCc1oc2ccccc2c1C(=O)c1cc(I)c(OCCN(CC)CC)c(I)c1 | inconclusive: 16.4 µM [inhibitor, single point] [middle of 5 runs] | – |
| COc1cc(C2c3c(oc4ccccc4c3=O)C(=O)N2Cc2ccco2)ccc1O (centres undefined) | inactive | – |
| O=C(CCC(=O)N(CC(=O)NC1CCCC1)Cc1cccs1)Nc1nccs1 | inactive | – |
| CC(C)[C@H]1COCCS(=O)(=O)N1Cc1cccc(Cl)c1 | inconclusive: 35.5 µM [inhibitor, single point] and inconclusive: 32.6 µM [inhibitor, single point] | – |

| SMILES | Potency | activity change, negative = growth inhibition |
| --- | --- | --- |
| Cc1cc(=O)oc2cc(OCC(=O)Nc3nnc(C(C)C)s3)ccc12 | inactive | – |
| Cc1ccc(C)c(NC(=O)CSc2cccc3cccnc23)c1 | inactive | – |
| CCCc1nc2ccc(Br)cn2c1Cc1ccccc1 | active: 4.61 µM | – |
| CC(=O)c1c(O)c2ccccc2n(C2CCCCC2)c1=O | inconclusive: 2.06 µM [inhibitor, partial curve] | – |
| Cn1c(=O)c(-c2cc(F)cc(F)c2)nc2cncnc21 | inactive | – |
| Cc1ccc(OCCC(=O)OCC(=O)Nc2ccc(F)cc2)cc1 | inconclusive: 25.9 µM [inhibitor, single point] | – |
| CCN(CC)S(=O)(=O)c1ccc(OC)c(NC(=S)Nc2cccc(C)c2C)c1 | inconclusive: 20.6 µM [inhibitor, single point] | – |
| CC(=O)Nc1ccc(C(=O)CSc2nnc3ccc4ccccc4n23)cc1 | inconclusive: 16.4 µM [inhibitor, single point] | – |
| CCOc1ccc(NC(=O)NCCN2CCN(c3ccccc3F)CC2)cc1 | inconclusive: 20.6 µM [inhibitor, single point] | – |
| c1ccc2c(c1)nc(N1CCOCC1)c1ccccc12 | inactive | – |
| CC(C)Cn1cnc2c(SCc3ccccn3)nc(N)nc21 | inactive | – |
| Cc1cc(C(=O)CCC(=O)NCC(=O)Nc2c(C)cccc2C)c(C)s1 | inconclusive: 29.1 µM [inhibitor, single point] | – |
| COc1ccc(Cn2c(O)c(/C=N/NC(=O)c3cccnc3)c3ccccc3c2=O)cc1 | active: 14.6 µM | – |
| Nc1nc2ccccc2n1/N=C/c1ccc(-c2ccccc2)o1 | inconclusive: 16.4 µM [inhibitor, single point] | – |
| N#CC(c1ccccc1)N(CCCCl)C(=O)c1ccccc1 (centres undefined) | inconclusive: 32.6 µM [inhibitor, single point] | – |
| Cc1ccc2nc3c(nc2c1C)C(O)=C3O | active: 14.6 µM | – |
| Cc1ccc(S(=O)(=O)N2CCN(C(=O)c3cc(S(=O)(=O)N(C)C)ccc3N3CCCC3)CC2)c(C)c1 | inconclusive: 29.1 µM [inhibitor, single point] | – |
| O=C(c1ccccc1)N1CCN(c2ccc([N+](=O)[O-])c(NCc3cccnc3)c2)CC1 | inconclusive: 29.1 µM [inhibitor, single point] | – |
| Clc1ccc(Cn2ncc3c(N4CCN(c5ccccc5)CC4)ncnc32)cc1 | active: 23.1 µM | – |
| Cc1ccc([C@H]2C[C@@H](O)[C@H](n3cc(C4CC4)nn3)CN2CC2CCCCC2)cc1 | inconclusive: 29.1 µM [inhibitor, single point] | – |
| Cc1ccccc1OCCC(=O)N(CC(C)C)c1c(N)n(Cc2ccccc2)c(=O)[nH]c1=O | inactive | – |
| COc1ccc(C(=O)OCC(=O)NCC2CCCCC2)cc1F | – | inconclusive: -32.1% [inhibitor] |
| COc1ccccc1NC(CC(=O)c1ccccc1)C(=O)OCC(=O)c1ccc(C)c(C)c1 (centres undefined) | active: 10.3 µM | – |

| SMILES | Potency | activity change, negative = growth inhibition |
| --- | --- | --- |
| Cc1ccc(NC(=O)CCCNC(=O)c2ccc(Cl)cc2)cc1S(=O)(=O)N1CCCCC1 | inconclusive: 29.1 µM [inhibitor, single point] | – |
| COc1cccc(NC(=O)c2ccc(-c3nc(COc4ccc(C)cc4)c(C)o3)cc2)c1 | inconclusive: 18.4 µM [inhibitor, single point] | – |
| Cc1cc(=O)n2nc(N3CCC(C(=O)Nc4ccc(Br)cc4F)CC3)sc2n1 | inconclusive: 0.58 µM [inhibitor, full curve, poor fit] | – |
| Cc1cccc(-n2ncc3c(NCCCn4ccnc4)ncnc32)c1 | inconclusive: 16.4 µM [inhibitor, single point] | – |
| Cc1ccc(NC(=O)CSc2ccc3nnc(CCNC(=O)c4ccccc4)n3n2)c(C)c1 | inactive | – |
| CCN1CCN(c2ccc(S(=O)(=O)N3CCOCC3)cc2NC(=O)C(C)Oc2ccc(Cl)cc2)CC1 (centres undefined) | inconclusive: 25.9 µM [inhibitor, single point] | – |
| Cc1cccc(C(=O)n2c(=S)nc3ccccn32)c1 | inconclusive: 20.6 µM [inhibitor, partial curve] | – |
| CCOC(=O)[C@H]1[C@H]2COc3ccc(OC)cc3[C@H]2N2C(=O)CNC(=O)[C@@]12C | – | inconclusive: -30.2% [inhibitor] |
| O=C1C2C(c3ccccc3)CC=CC2[C@H](c2ccc(C(F)(F)F)cc2)N1Cc1ccccc1 (some centres undefined) | active: 18.4 µM | – |
| O=C(c1cccc(Cl)c1)C1CCCN(C(=O)c2ccoc2)C1 (centres undefined) | inactive | – |
| CC(C)C[C@@H](CN1CCCC1CN1C(=S)NC[C@@H]1Cc1ccccc1)N1C[C@H](Cc2ccccc2)N(CC2CCCCC2)C1=S (some centres undefined) | inconclusive: 20.6 µM [inhibitor, single point] | – |
| Cc1ccc2c(c1)c1c(c(=O)n(-c3ccccc3C)c(=O)n1CC(=O)NCC1CCCO1)n2C (centres undefined) | inconclusive: 29.1 µM [inhibitor, single point] | – |
| COc1ccc2c(c1)CC/C(=C\c1ccc(OC)c(Cn3nc(C)cc3C)c1)C2=O | active: 16.4 µM | – |
| CCN(CC)c1ccc(/C=N/NC(=O)c2ccco2)c(O)c1 | active: 5.17 µM | – |
| CC1Cc2ccccc2N1S(=O)(=O)c1cccc(C(=O)NCCCn2ccnc2)c1 (centres undefined) | inconclusive: 8.2 µM [inhibitor, partial curve] | – |
| CCOC(=O)C1=NN(c2ccccc2)C2=NC(C)=C(C(=O)OC)C(c3ccc(C)cc3)N12 (centres undefined) | inactive | – |
| Cc1ccc(C(O)c2ncc(-c3cccc4ccccc34)[nH]2)c(C)c1 (centres undefined) | inconclusive: 16.4 µM [inhibitor, single point] | – |
| CC(C)(CN1CCc2ccccc2C1)NS(=O)(=O)c1ccc(Cl)cc1 | inconclusive: 29.1 µM [inhibitor, single point] | – |
| Cc1nc2nc[nH]n2c(=O)c1NC(=O)CC12CC3CC(CC(C3)C1)C2 | inconclusive: 6.51 µM [inhibitor, single point] | – |
| Cc1ccc(C)c(NC(=O)CCCN2C(=O)C(c3ccccc3)Oc3cccnc32)c1 (centres undefined) | active: 18.4 µM | – |
| COc1ccc(CCC(=O)OCC(=O)N(CC(C)C)c2c(N)n(Cc3ccccc3)c(=O)[nH]c2=O)cc1 | inactive | – |
| Cc1ccc(Nc2nnc(SCC(=O)Nc3cccc(S(=O)(=O)NC4=NCCCCC4)c3)s2)c(C)c1 | inconclusive: 29.1 µM [inhibitor, single point] | – |
| CNS(=O)(=O)c1cccc(C(=O)OCC(=O)NCCCc2ccccc2)c1 | inconclusive: 20.6 µM [inhibitor, single point] | – |
